# Laboratory results as given in the supplement of paper PMC3334620.
# Whole data set: some 33,000 sequences, median “E-score (-0.5 to 0.5)” near -0.036, cut for the highest 2% near 0.37. This is one part of the list.
# Molecular target: T1, Yer064c (UniProt P40041)
# T1 sequence: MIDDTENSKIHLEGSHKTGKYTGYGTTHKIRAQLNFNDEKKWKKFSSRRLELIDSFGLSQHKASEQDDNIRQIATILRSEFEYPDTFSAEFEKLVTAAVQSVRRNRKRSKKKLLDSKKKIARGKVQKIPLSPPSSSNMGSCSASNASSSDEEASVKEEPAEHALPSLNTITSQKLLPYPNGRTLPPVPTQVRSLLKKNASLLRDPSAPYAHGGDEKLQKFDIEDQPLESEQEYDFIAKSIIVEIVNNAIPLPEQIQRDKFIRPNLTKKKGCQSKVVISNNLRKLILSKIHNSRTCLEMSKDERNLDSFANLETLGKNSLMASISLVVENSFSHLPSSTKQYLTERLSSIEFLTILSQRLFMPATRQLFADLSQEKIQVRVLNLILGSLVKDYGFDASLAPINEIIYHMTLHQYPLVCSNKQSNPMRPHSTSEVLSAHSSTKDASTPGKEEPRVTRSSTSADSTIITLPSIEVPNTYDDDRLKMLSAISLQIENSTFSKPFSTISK
# Assay: PBM E-score (8-mer binding enrichment) (E-score (-0.5 to 0.5)); higher = stronger / more preferred TF binding; most listed sequences are background and not binding sites
# Details: protein concentration: 200 nM; construct: GST-full length
# Outline: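 Yeast transcription factors, full-length or as DNA-binding domains, were expressed with a GST tag using PURExpress in vitro transcription/translation. At about 100-200 nM they were applied to universal all-10-mer Agilent arrays, double-stranded by primer extension on fresh or once-stripped slides. Fluorescent anti-GST detected bound protein, and masliner normalised the scans. E-scores for ungapped eight-base words, pooled with reverse complements, came from the Universal PBM Analysis Suite.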
row,Sequence,PBM E-score
1,AATTAAAC,0.156
2,GCAAGGAA,-0.13
3,AGGCTTAG,-0.211
4,ACTACCAT,0.261
5,ACTAGGGA,-0.0656
6,AGATGGGC,-0.0771
7,TAGTAATA,0.193
8,AAGCTTAT,-0.163
9,CCATTCGG,0.00253
10,AAGAGACT,0.264
11,AACAACAC,-0.00491
12,AGATATCT,0.0912
13,CTCGGTAA,-0.0279
14,CATCAATA,0.00965
15,CGAAACCA,-0.00384
16,ACCGATAT,-0.109
17,AACATTAC,0.0977
18,ACAAACGC,-0.195
19,CAATAGGA,-0.157
20,CGAACCCG,-0.197
21,ACGCCGAA,0.0741
22,ACACCAAT,-0.0406
23,CCTCCGGC,-0.209
24,ACCAGGAT,-0.00897
25,TCCTGACA,-0.0281

row,Sequence,PBM E-score
1,CTATATGA,0.256
2,CCTCTACG,-0.0992
3,GCAGATCA,-0.0804
4,AATTACAC,-0.115
5,ATCGTATA,0.0263
6,CAAGTGCA,-0.0407
7,AAACCAAC,-0.0381
8,ATTATAGG,0.0127
9,ATGGCGGC,-0.0869
10,ACTGACCA,-0.0902
11,CAATAAGG,-0.179
12,GCAATTAC,-0.0747
13,TAATCAAA,0.315
14,AAACCTAT,-0.218
15,AGGCAACA,-0.231
16,TCGCACAA,0.169
17,AGGCGGAA,0.0617
18,GGGCGGTA,-0.3
19,ATGTAGGC,-0.332
20,ATACATTG,-0.0381
21,GCGGACTA,0.294
22,CGAATTAG,-0.0039
23,GGGTATAC,0.00654
24,CACCTTCG,0.101
25,TCGCTGAA,0.113

row,Sequence,PBM E-score
1,CGCACCAC,-0.221
2,CTACTTCA,0.0506
3,AACGTGCG,-0.197
4,ATAAGTGG,0.143
5,ATTCAGGC,-0.0938
6,CCAACCCA,-0.136
7,ACGACCAT,-0.106
8,CCACGGTC,-0.184
9,GGCGCTAC,-0.135
10,AAAGGCGA,-0.021
11,CGGATCGA,-0.00898
12,ACACGGTG,-0.12
13,GTGCATCA,-0.12
14,AGAGCGTC,-0.104
15,GGCAGCTA,-0.07
16,AGGTCAAT,0.0938
17,CTATATAA,0.0598
18,CAGCCAAC,-0.0849
19,CGGACCCA,-0.176
20,AGCGGTAT,-0.117
21,AATATTCT,-0.159
22,CAGAACTG,0.139
23,AAGGCAGG,-0.192
24,AACGTGAG,0.0223
25,GGTTGAGA,0.0673

row,Sequence,PBM E-score
1,ACTGTACA,-0.0719
2,TAAAAAAA,0.167
3,AGCGTGTC,-0.0309
4,CGCCGACA,-0.219
5,CACGCCGC,-0.108
6,TATCTGGA,0.0749
7,ACTTCTAC,0.109
8,ACGGCTTG,-0.248
9,CGGTGTGC,-0.282
10,ATTCCTAG,0.158
11,AATACTGT,0.0486
12,AACCTGAT,0.201
13,CACCGGCG,-0.0504
14,GGCAGAGA,-0.0617
15,CCAGCTTA,-0.159
16,AATATAAG,0.248
17,TGACGCAA,-0.158
18,AACTGCAT,0.104
19,CAATCCTC,0.131
20,AATATGCT,-0.0838
21,ACGAATCA,0.404
22,CGGCCATC,-0.166
23,TAATGTGA,0.19
24,ATGGAGCC,-0.274
25,AGTGGGGG,-0.282

row,Sequence,PBM E-score
1,AGAAGTTG,-0.171
2,GTAGTTCA,0.0332
3,CAAGGCAC,-0.144
4,CTGTGGAC,0.0799
5,CCCCGGGC,-0.0338
6,GTACCTGA,0.134
7,TATAAGCA,-0.132
8,AAGCACTG,0.0399
9,AACTCCTA,-0.137
10,AGATATTG,-0.159
11,GAGGACTC,0.387
12,CCGTTTGC,-0.119
13,AGACGCAG,-0.0905
14,CTTACCGC,-0.144
15,CGTGAGGA,-0.121
16,ACTCAACA,0.314
17,GGACCGCA,-0.128
18,CTACCAAC,0.0172
19,AGTTACCC,0.127
20,GACGCTGC,-0.393
21,GCCAATGA,0.101
22,ACTAAAGA,0.108
23,CAGTTTTA,-0.0515
24,ACCCTAGA,-0.0589
25,CCAGGTAG,-0.139

row,Sequence,PBM E-score
1,CAGTCCAC,0.00637
2,CTTCAAAG,0.132
3,ATCAGGAT,0.0777
4,CAATTCGA,-0.0384
5,GCTTATCC,-0.223
6,ATGTACAG,-0.0601
7,CGACGTAG,-0.281
8,ATCCGGAT,-0.186
9,AGAGATGC,-0.33
10,ATGTCCAG,-0.233
11,AGAATTTC,-0.219
12,ATCCGGTA,0.0415
13,ACAACCCT,-0.107
14,ATTTGAAA,0.0462
15,GGATCGAC,-0.0538
16,ACCGTACG,-0.256
17,CCAAAGGA,-0.0837
18,ACATCAAA,0.0746
19,AGAAGTCA,0.43
20,AGGCGCGC,-0.364
21,CTCCTGCA,-0.16
22,ATACTGTC,-0.0124
23,ATGTTTAA,0.298
24,AGAGAACG,-0.168
25,GAGTCTAA,0.308

row,Sequence,PBM E-score
1,ACAAAGGG,-0.0593
2,CGGCTACG,-0.191
3,CGACAGAA,-0.0611
4,CGTGTTAA,5e-05
5,GGCACACA,0.0236
6,CATCCGAG,0.0429
7,CGTGCCAC,-0.204
8,GCTTTCAA,0.0808
9,ACAGGCTC,-0.151
10,ATTGCTAG,-0.117
11,GGAGCTCA,0.0928
12,GGGGTAAC,-0.0702
13,CGGTTCAA,0.1
14,AGCGTGGA,-0.217
15,ATCACAAA,0.15
16,GCCAGGGA,-0.121
17,CTCAGAAC,0.151
18,AGTCCTTA,0.304
19,CCGTTAAA,-0.0687
20,CACAGCCG,-0.0959
21,AACATCGA,0.00221
22,CAAATCGA,0.0397
23,ATACGTTC,-0.216
24,ACTCTATC,0.0568
25,GGTGCTTA,-0.1

row,Sequence,PBM E-score
1,CCGCAATA,-0.00287
2,CAACAAAG,-0.0491
3,GACGCCGC,-0.207
4,ACCCGGCA,-0.261
5,GATACGAA,0.0942
6,ACAGTACG,-0.00134
7,ATGCGCAT,-0.0468
8,ATCGGGCG,-0.206
9,AATAGTAC,6e-05
10,CGATGAGC,0.176
11,CGTACGAG,0.0282
12,CGTTTGAA,0.106
13,CTATGAAG,-0.158
14,AAGGTGGC,-0.237
15,GCGTGAAC,-0.0629
16,AGTAAAAA,0.0178
17,GCTCTGTA,-0.218
18,ATCTCCTC,-0.0714
19,CTACGCTC,-0.0886
20,AGTAGGGA,-0.081
21,ACGGGGGG,-0.208
22,AATGAACC,0.0108
23,ACCACCGT,0.0173
24,AATATTCC,0.112
25,CCGAATGA,0.111

row,Sequence,PBM E-score
1,CGGCGCAC,-0.361
2,AGCCTCAC,-0.151
3,CCGTCGAG,-0.0272
4,GCGCCCCC,-0.387
5,ATTTTGCG,0.00719
6,AAATAATT,0.023
7,AAGGGTTA,-0.112
8,AAGCACTA,0.0174
9,TATTGGCA,0.0198
10,CACTAGGA,-0.035
11,GCTCCTTA,0.029
12,AACTACGA,0.0144
13,TCGCCCCA,0.0165
14,GGAGCGCC,-0.2
15,CCTCCGAC,-0.0902
16,CCACTACC,-0.222
17,CCCGAGCC,-0.161
18,CTAACACA,0.253
19,ATGTTAGA,0.031
